The supplement of paper PMC5655136
Values come from read counts of a selection and are noisy.

What follows are sequences tested on NB7 (assay: fold depletion of shRNA, plasmid library share / infected cells without Dox share (9 days) (ratio); higher = more depleted after infection (more toxic, leaky expression from a Tet-inducible vector; NB7 is a neuroblastoma line without caspase-8)). Settings: shRNA pool: CD95L ORF + CD95L 3'UTR + Venus libraries.
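Further: shRNA barcodes quantified by deep sequencing of PCR amplicons from cellular DNA, counts expressed as percent of each subpool, ratio averaged over two biological duplicates.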

| Sequence | fold depletion of shRNA |
| --- | --- |
| TCTCAGACGTTTTTCGGCTTA | 2.12 |
| CATGAAGCAGCACGACTTCTT | 0.798 |
| ACACCCCCATCGGCGACGGCC | 0.377 |
| TTCTTCAAGGACGACGGCAAC | 1.45 |
| ATTGATTGTCAGCTACTAATG | 2.16 |
| TGCAATTGTAGGGGTGTGTGT | 1.02 |
| AGGGGAAGATGATGAGCTACT | 0.622 |
| CCTGGGCTACGGCCTGCAGTG | 5.18 |
| AATGTCTGTAGCTCCTCAACT | 0.868 |
| ACCACTGCCTCCACTACCGCT | 1.45 |
| GAGGAACTCTAAGTATCCCCA | 1.18 |
| GACCTGAGGATTTAAGGGATG | 2.93 |
| GGCTACGGCCTGCAGTGCTTC | 0.314 |
| GCCACAAGTTCAGCGTGTCCG | 0.878 |
| TCACCTCTCAAGGTGGGCCTT | 0.799 |
| ACGGCAAGCTGACCCTGAAGC | 0.54 |
| ATGGAATTGTCCTGCTTTCTG | 0.786 |
| CCTGAGCTACCAGTCCGCCCT | 2.02 |
| GTATGACTAAAGAGAGAATGT | 0.499 |
| ATAATAAATATTTATGTAGAT | 0.8 |
| CCTGGGGCACAAGCTGGAGTA | 0.667 |

| Sequence | fold depletion of shRNA |
| --- | --- |
| CATCTTCACTTCTAAATGCAT | 1.3 |
| CCATCTTCTTCAAGGACGACG | 1.26 |
| TACCTGGGGGCAGTGTTCAAT | 1.72 |
| GGTGAGCAAGGGCGAGGAGCT | 1.38 |
| CAGCCAGATGCACACAGCATC | 5.47 |
| ACCAGTCCGCCCTGAGCAAAG | 2.63 |
| ACAATCAACTCTAATAGTGCT | 1.2 |
| AATGAAACTGGGCTGTACTTT | 1.12 |
| CTGGAGTGAAGTATAAGAAGG | 0.745 |
| CCCTGAGCCACAAGGTCTACA | 2.07 |
| ATCGGCGACGGCCCCGTGCTG | 0.614 |
| TTCCTATAATATAATAAATAT | 1.08 |
| TGACCTGAGGATTTAAGGGAT | 0.695 |
| AATGGAGGAATATGACGGAAG | 1.49 |
| GTTGTGACCTGAGGATTTAAG | 9.44 |
| GCGCCGAGGTGAAGTTCGAGG | 0.804 |
| ACAACCACTACCTGAGCTACC | 3.6 |
| TAGGAAAATATGGGTTGCATT | 3.93 |
| ACACCTATGGAATTGTCCTGC | 1.11 |
| AGGTGAAGTTCGAGGGCGACA | 1.73 |
| ACCCATATCCCCAGATCTACT | 0.931 |

| Sequence | fold depletion of shRNA |
| --- | --- |
| CTTGGTAGGATTGGGCCTGGG | 0.19 |
| GAGCTACCAGTCCGCCCTGAG | 1.69 |
| TGTGTGTGTGTGTGTGTGTGT | 2.36 |
| TTTTGAGGAATCTCAGACGTT | 2.78 |
| GCCCGCAGCAGCTACCTGGGG | 0.443 |
| CAAGTCCAACTCAAGGTCCAT | 0.658 |
| GAGAAGCGCGATCACATGGTC | 0.746 |
| CTACCCCGACCACATGAAGCA | 1.93 |
| TCCGCCACAACATCGAGGACG | 0.728 |
| GCGTGCAGCTCGCCGACCACT | 0.404 |
| GTTTATGAGCCAGACAAATGG | 1.98 |
| CAACTCAAGGTCCATGCCTCT | 1.45 |
| GAGAGAATGTAGATATTGTGA | 1.37 |
| ACTAGAGGCTTGCATAATAAG | 1.02 |
| CTAGAGGCTTGCATAATAAGC | 0.364 |
| CAGGATCTGGTGATGATGGAG | 1.57 |
| TGCTTAAAAATCATTGATTGT | 1.84 |
| GAACTCTAAGTATCCCCAGGA | 2.78 |
| GAAGTACATATTAGGAAAATA | 0.509 |
| GACGGAAGAACATAGAACTCT | 1.12 |
| CATGTGAAGAGGGAGAAGCAT | 3.79 |

Same assay, conditions: shRNA pool: CD95 ORF + CD95 3'UTR + Venus libraries

| Sequence | fold depletion of shRNA |
| --- | --- |
| AAACCTGCTACAAATGGCAGC | 1.05 |
| TTATTTTTCCCCCACCCCCGA | 11.4 |
| TGACACTAAGTCAAGTTAAAG | 0.953 |
| CATGAAGCAGCACGACTTCTT | 1.22 |
| ACACCCCCATCGGCGACGGCC | 0.769 |
| TAAAGAACTTCCATTTATGGA | 1.38 |
| TTCTTCAAGGACGACGGCAAC | 1.22 |
| TTCTTATTTTTCCCCCACCCC | 2.06 |
| TCAACTGCTTCGTAATTGGCA | 1.44 |
| TGAGAAGATCATATTTATGTA | 0.967 |
| CTCAAGGACATTACTAGTGAC | 1 |
| CTTAATAGCTGGCTGTAAATA | 1.23 |
| CCTGGGCTACGGCCTGCAGTG | 1.72 |
| ACTCAGAACTTGGAAGGCCTG | 1.54 |
| GGCTACGGCCTGCAGTGCTTC | 0.528 |
| GCCACAAGTTCAGCGTGTCCG | 0.991 |
| TTCTAGAGATTTTACCATATT | 0.746 |
| TTTGTAGATTTTTAATATCTC | 1.36 |
| TGCTTCGTAATTGGCATCAAC | 2 |
| TACCATATTTCTAAACTTTGT | 1.07 |
| TATACATAGCAATGGTAAAAT | 0.907 |
| GTAAACCAAACTTTTTTTGTA | 0.754 |
| ACGGCAAGCTGACCCTGAAGC | 0.634 |
| CCTGAGCTACCAGTCCGCCCT | 2.27 |
| AACAACAAATTCAGTTCTGAG | 1.19 |
| ATTTATGGAGGATTTTTTTGC | 0.708 |

| Sequence | fold depletion of shRNA |
| --- | --- |
| CCTGGGGCACAAGCTGGAGTA | 0.858 |
| GAATTGAGGAAGACTGTTACT | 0.924 |
| TCATGAACCCATGTTTGCAAT | 6.17 |
| CCATCTTCTTCAAGGACGACG | 2.67 |
| GGTGAGCAAGGGCGAGGAGCT | 1.33 |
| TCAGAAATGAAATCCAAAGCT | 1.17 |
| AATTATAATGTTTGACTATTA | 0.818 |
| ACCAGTCCGCCCTGAGCAAAG | 1.11 |
| ACATAGCAATGGTAAAATCAT | 0.801 |
| TGAAATATCAGTTACTGAACA | 0.781 |
| ACAAATGGCAGCTTATACATA | 1.43 |
| ATCGGCGACGGCCCCGTGCTG | 0.818 |
| TTAAGATTCTCCTTACTACTA | 1.66 |
| GCACCCGGACCCAGAATACCA | 0.884 |
| TTCTTAATAGCTGGCTGTAAA | 1.44 |
| GGACTGCACAGTCAATGGGGA | 0.464 |
| GTGAATTTTAAGAAATAATAT | 1.19 |
| TGTGAACATGGAATCATCAAG | 1.21 |
| TACATAGCAATGGTAAAATCA | 0.771 |
| GCGCCGAGGTGAAGTTCGAGG | 0.885 |
| ACAACCACTACCTGAGCTACC | 2.65 |
| ACCCATGTTTGCAATCAAAGA | 1.12 |
| AATGAAATCCAAAGCTTGGTC | 1.83 |
| GGATGAAAGATTAAGATTATG | 1.96 |
| AGGTGAAGTTCGAGGGCGACA | 1.38 |
| CAATAATGTCCCATGTAAAAC | 1.09 |

| Sequence | fold depletion of shRNA |
| --- | --- |
| GAAAACATTAAATTATAATGT | 0.906 |
| GAGCTACCAGTCCGCCCTGAG | 1.3 |
| AAATATAGGTAAAAGTACGTA | 1.51 |
| TTATATTTCTGTAAATGTAAA | 1.33 |
| ATGGAAATATCACCAAAAAAT | 0.773 |
| TGGCATCTAACATATGATTCT | 1.37 |
| GAGAAGCGCGATCACATGGTC | 0.933 |
| CTACCCCGACCACATGAAGCA | 1.7 |
| GTAATTGGCATCAACTTCATG | 0.695 |
| TTACCATATTTCTAAACTTTG | 0.706 |
| TCCGCCACAACATCGAGGACG | 0.797 |
| GCGTGCAGCTCGCCGACCACT | 0.863 |
| CTAGAGATTTTACCATATTTC | 1.03 |
| AGAAGATCATATTTATGTAAA | 0.617 |
| ATACCTGGAACCACCTAAAGA | 2.48 |
| TATCACCAAAAAATACTTAAT | 1.16 |
| ACCCTCCTACCTCTGGTTCTT | 2.49 |
| ATGCAGAAAGCACAGAAAGGA | 2.6 |
| AACCCCACTCTATGAATCAAT | 1.42 |
| CATCAAGAGTAAATGCAGTGG | 0.582 |
| AGCCCTGTCCTCCAGGTGAAA | 2.89 |
| AAACTTCAGAAATGAAATCCA | 1.33 |
| ATAGATTCTTATTTTTCCCCC | 0.711 |
| TCCTCCAGGTGAAAGGAAAGC | 1.09 |
| AAGATGATAAAATAGATTCTT | 0.883 |
